For orientation: Kd means the constant that tells how readily two partners part at equilibrium. A lower Kd goes with a tighter complex.

Holding throughout (experiment): ITC; 400 μM H3K9me peptide injected from the syringe into 40 μM protein in the cell (VP-ITC); 20 °C; 20 mM KPB pH 6.80, 10 mM NaCl; one-site binding model
Common to all, as to settings: both partners purified
In general terms: In ITC the heat of successive injections is recorded.

Test [1] has as its target T1, un-phosphorylated HP1α chromodomain with N-terminal tail (unmod-NCD, amino acids 1–80) (mouse, UniProt Q61686 1-80).
T1 construct: three amino acids left at the N-terminus after cleavage by thrombin; HP1α (heterochromatin protein 1 alpha), amino acids 1–80: N-terminal tail (1–19) and chromodomain (20–80); 13C/15N-labelled for NMR; also called numod-NCD; source: E. coli BL21 (DE3) star, pCold/Amp (HP1αCD), purified (Ni-NTA, thrombin digestion, Superdex 75); not shown: His tag, N-terminal, cleaved

Test [2] addresses T2, phosphorylated HP1α chromodomain with N-terminal tail (phos-NCD, amino acids 1–80, phosphorylated at Ser11–14) (mouse, UniProt Q61686 1-80, phosphoserine at 11, 12, 13 and 14).
T2 construct: three amino acids left at the N-terminus after cleavage by thrombin; HP1α (heterochromatin protein 1 alpha), amino acids 1–80: N-terminal tail (1–19) and chromodomain (20–80); Species from the introduction (mouse HP1 isoforms); 13C/15N-labelled for NMR; not shown: His tag, N-terminal, cleaved

Test [3] concerns the target T3, HP1α chromodomain alone, NCDΔ1–19 (amino acids 20–80) (mouse, UniProt Q61686 20-80).
T3 construct: three amino acids left at the N-terminus after cleavage by thrombin; HP1α, amino acids 20–80 (chromodomain); Species from the introduction (mouse HP1 isoforms); also called isolated CD; source: E. coli BL21 (DE3) star, purified (Ni-NTA, thrombin digestion, Superdex 75); not shown: His tag, N-terminal, cleaved

In test [4] the target is T4, HP1α NCDΔ1–14 (amino acids 15–80), un-phosphorylated (mouse, UniProt Q61686 15-80).
T4 construct: three amino acids left at the N-terminus after cleavage by thrombin; HP1α, amino acids 15–80 (acidic segment 15EDEEE19 and chromodomain); Species from the introduction (mouse HP1 isoforms); source: E. coli BL21 (DE3) star, purified (Ni-NTA, thrombin digestion, Superdex 75); not shown: His tag, N-terminal, cleaved

The target of test [5] is T5, HP1α NCDΔ1–9 (amino acids 10–80), un-phosphorylated (mouse, UniProt Q61686 10-80).
T5 construct: two amino acids attached to the N-terminus (HRV3C recognition site); HP1α, amino acids 10–80 (serine segment, acidic segment and chromodomain); Species from the introduction (mouse HP1 isoforms); also called un-phosphorylated D10; source: E. coli BL21 (DE3) star, purified (Ni-NTA, HRV3C recognition site in place of the thrombin site, Superdex 75); not shown: His tag, N-terminal, cleaved

Test [6] concerns the target T6, phosphorylated HP1α NCDΔ1–9 (amino acids 10–80) (mouse, UniProt Q61686 10-80, phosphorylated serine residues of 10DpSpSpSpS14 (Ser11–14)).
T6 construct: two amino acids attached to the N-terminus (HRV3C recognition site); HP1α, amino acids 10–80 (phosphorylated serine segment, acidic segment and chromodomain); Species from the introduction (mouse HP1 isoforms); also called phos-NCD^Δ1–9; phosphorylated D10; not shown: His tag, N-terminal, cleaved

Test [7] addresses T7, HP1α NCDΔ1–4 (amino acids 5–80), un-phosphorylated (mouse, UniProt Q61686 5-80).
T7 construct: three amino acids left at the N-terminus after cleavage by thrombin; HP1α, amino acids 5–80; Species from the introduction (mouse HP1 isoforms); source: E. coli BL21 (DE3) star, purified (Ni-NTA, thrombin digestion, Superdex 75); not shown: His tag, N-terminal, cleaved

Test [8] concerns the target T8, phosphorylated HP1α NCDΔ1–4 (amino acids 5–80) (mouse, UniProt Q61686 5-80, the serine residues of the tail phosphorylated (Ser11–14)).
T8 construct: three amino acids left at the N-terminus after cleavage by thrombin; HP1α, amino acids 5–80; Species from the introduction (mouse HP1 isoforms); also called phos-NCD^Δ1–4; source: E. coli BL21 (DE3) star, co-expressed with casein kinase II, purified (Ni-NTA, thrombin digestion, Superdex 75); not shown: His tag, N-terminal, cleaved

B1: H3K9me peptide (22-mer, […] of histone H3 with a C-terminal tyrosine) (peptide)
peptide: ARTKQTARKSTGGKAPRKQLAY
modifications: methylated lysine at 9 (Kme; 'the three methyl groups of H3K9', 'H3K9me3 peptide')
notes: histone H3, […]; C-terminal tyrosine added for quantitative analysis; The added tyrosine is no part of histone H3; also called H3K9me3 peptide; source: synthetic peptide, bought: Sigma Genosys
As to B1, the Kd in test [1] is 1770 nM; in test [2], 170 nM; in test [3], 13300 nM; in test [4] it was 2520 nM; in test [5], 160 nM; in test [6], 40 nM. The Kd was 760 nM in test [7] and 380 nM in test [8].
